Several values for one entry are separate records, joined by “and”; a condition that tells them apart may be missing. Equal values may be shown once. Whole data set: some 110,000 compounds, median “z-score” near -0.1, cut for the highest 2% near 2. The list shows a part of the results. Activity calls are given as the source filed them.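 Rule for the calls: active = z-score in the third read window above 3 or below -3; inactive = the rest.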

The experiment concerns the target Metabotropic glutamate receptor 8 (Rattus norvegicus) (UniProt P70579). The experiment can be described thus: rat mGluR8 modulators via GIRK flux, primary screen, cell-based, thallium flux, HTS (AID 488969). Particulars: HEK293 rat mGluR8, GIRK (G protein-gated inwardly rectifying potassium channel) thallium flux, FluoZin2; at 10 µM; stronger effect = higher value; submaximal glutamate (EC20) added with thallium.
UniProt P70579, sequence (P70579 whole entry, looked up): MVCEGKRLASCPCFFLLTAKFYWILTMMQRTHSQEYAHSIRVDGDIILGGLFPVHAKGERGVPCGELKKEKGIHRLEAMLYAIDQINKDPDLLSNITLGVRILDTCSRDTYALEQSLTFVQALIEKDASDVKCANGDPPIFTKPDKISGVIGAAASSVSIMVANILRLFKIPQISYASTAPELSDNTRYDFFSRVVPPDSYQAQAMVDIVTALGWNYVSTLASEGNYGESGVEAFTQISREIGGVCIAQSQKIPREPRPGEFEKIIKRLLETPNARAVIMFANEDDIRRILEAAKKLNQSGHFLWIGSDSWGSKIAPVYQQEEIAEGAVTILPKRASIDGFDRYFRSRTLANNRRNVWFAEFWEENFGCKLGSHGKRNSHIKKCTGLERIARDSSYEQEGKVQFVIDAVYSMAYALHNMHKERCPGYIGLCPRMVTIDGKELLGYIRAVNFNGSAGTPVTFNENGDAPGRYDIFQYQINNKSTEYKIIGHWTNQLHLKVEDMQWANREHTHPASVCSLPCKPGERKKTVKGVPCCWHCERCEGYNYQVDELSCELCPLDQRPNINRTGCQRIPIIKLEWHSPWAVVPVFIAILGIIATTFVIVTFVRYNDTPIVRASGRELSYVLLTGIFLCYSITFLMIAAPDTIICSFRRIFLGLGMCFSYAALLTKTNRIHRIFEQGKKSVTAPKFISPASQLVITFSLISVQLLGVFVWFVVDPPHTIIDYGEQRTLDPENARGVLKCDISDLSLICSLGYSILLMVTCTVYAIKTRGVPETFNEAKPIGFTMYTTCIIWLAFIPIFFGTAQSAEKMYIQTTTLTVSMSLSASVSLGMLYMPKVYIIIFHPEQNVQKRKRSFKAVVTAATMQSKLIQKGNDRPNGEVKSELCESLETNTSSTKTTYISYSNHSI
Regarding `O=C(O/N=C1/CCSc2ccccc21)c1ccc(F)cc1`, the z-score was -0.292.
In the case of `CCCCSc1nnc2c(n1)OC(C(=O)c1ccccc1)Nc1ccccc1-2` (stereo unspecified) it was -1.48; in that of `CC(C#N)(Nc1ccc(Cl)cc1)c1cccnc1` (stereo unspecified), -0.497.
Next, `Cc1nc2ccccc2cc1C(=O)O`: 0.0939; `CCOc1ccc(N2C(=O)C(c3ccccc3)=C(c3nc4ccccc4s3)C2NC(C)=O)cc1` (stereo unspecified): -0.263; `Cc1nc(SCC(=O)Nc2c(C)n(C)n(-c3ccccc3)c2=O)[nH]c(=O)c1C`: -0.363.
In turn, `COCCNC(=O)Cn1cnc2ccc(S(=O)(=O)N3CCC(C)CC3)cc2c1=O` had a z-score of 0.101.
In turn, `Cc1cc(NC(=O)C2CC=CCC2C(=O)O)no1` (stereo unspecified) had a z-score of 0.0781.
In the case of `O=C(N/N=C/c1ccncc1)c1cccc(NC(=O)c2ccccc2Cl)c1` it was 0.369; in that of `COc1cccc(-n2nc(C(=O)Nc3ccc4c(c3)OCO4)c3ccccc3c2=O)c1`, -0.0495.
Next, `COCCn1c(-c2ccc(OC)cc2)cnc1SCC(=O)Nc1cccc2ccccc12`: -0.0496; `COc1cc(C(=O)N2CCN(Cc3ccccc3C(F)(F)F)CC2)cc(OC)c1OC`: 1.31; `O=C1CC(SC(=NCc2ccc3c(c2)OCO3)Nc2ccccc2)C(=O)N1` (stereo unspecified): -0.215.
With `CCOC(=O)c1c(CN2CCCCC2)oc2ccc(OC)cc12`, the z-score is -0.338 and -0.0699.
In the case of `COc1ccc(CNC(=O)Nc2ccc(OC)cc2)cc1` it was -0.548.
Compound `O=C(COc1ccccc1F)N1CCN(S(=O)(=O)/C=C/c2ccccc2)CC1` returned a z-score of -0.229.
In the case of `CCN1C(=O)CC(Sc2ccccc2N)C1=O` (stereo unspecified), the z-score is 0.447.
Compound `O=C(CSCc1ccc([N+](=O)[O-])cc1)NC1CC2CCC1C2` (stereo unspecified) came in with a z-score of -0.334.
Next, `COCCOC(=O)c1c(C)oc2cc(Br)c(OCC(N)=O)cc12`: -0.287; `Cc1cc(C(=O)CN2C(=O)c3ccccc3C2=O)c(C)n1C1CC1`: -0.375.
Take `CC(C)c1ccc(/C=N/NC(=O)CN(c2cccc(Cl)c2Cl)S(C)(=O)=O)cc1`: the z-score is -0.0666.
Next, `Cc1nc(CN2CCN(C(=O)c3ccc(Br)cc3)CC2)cs1`: 0.293.
Next, `CSc1nc(O)c(C2OC(=O)c3ccccc32)c(=O)[nH]1` (stereo unspecified): -0.0305.
Next, `O=C(OCC#CCSc1nnc(-c2ccccc2)o1)c1cc2ccccc2o1`: 0.217; `Cc1ccc(C2N(C)c3ccccc3-c3nc4ccccc4n32)o1` (stereo unspecified): -2.28; `CC(=O)c1cc2c(cc1N/C(=N/S(=O)(=O)c1ccccc1)c1ccc(Cl)cc1)OCO2`: -0.262.
Compound `COc1ccc(NC(=O)c2cccc(S(=O)(=O)Nc3ccc(Br)cc3)c2)cn1` had a z-score of -0.375.
Next, `Cc1oc(C(=O)O)cc1COc1ccc2c3c(c(=O)oc2c1)CCC3`: -0.0436.
Next, `O=c1cc(-c2ccccc2)nc2nc(-c3ccco3)[nH]n12`: -1.85; `Cc1nc(N)c(C#N)c(-c2cccnc2)c1C`: 0.356; `CN1/C(=C/C2CC(=O)N(c3ccc([N+](=O)[O-])cc3)C2=O)C(C)(C)c2ccccc21` (stereo unspecified): -0.329.
In the case of `N#C/C(=C\c1ccc(N2CCCCC2)c([N+](=O)[O-])c1)c1nn(-c2ccccc2)c(N)c1C#N` it was -0.188; in that of `COc1ccccc1Nc1nc(N)nc(CSc2nnc(C)s2)n1`, 0.149; in that of `C=CCn1c(COc2ccc(CC)cc2)nnc1SC/C(O)=C(\C#N)c1nc2ccccc2[nH]1`, -0.182.
As to `Cc1cc(C(=O)OCC(=O)c2cccc([N+](=O)[O-])c2)c2ccccc2n1`, the z-score was -0.157.
Next, `CCOC(=O)c1ccc(S(=O)(=O)N2CCN(CC(=O)NC(=O)NC3CCCCC3)CC2)cc1`: 0.0417; `Cc1cc(C)nc(N(C#N)C(C)C(=O)N(C)C)n1` (stereo unspecified): -0.172.
`COc1ccc(NC(=O)CSc2nnc(Cc3cccn3C)n2CCc2ccccc2)cc1OC` had a z-score of -0.239.
Next, `C=CCN1C(=O)S/C(=C\c2ccc(N3CCOCC3)cc2C)C1=O`: -0.286.
As for `CC1=N/C(=C\c2ccc([N+](=O)[O-])cc2)C(=O)N1c1ccc(Br)c(C)c1`, the z-score was -0.365.
Next, `COc1ccccc1Oc1ccc(S(=O)(=O)N2CCCC2)cc1`: -0.351; `CCCCCCCC(=O)N/N=C/c1cccnc1`: -0.364.
In the case of `CCCCC(=O)NC(c1ccco1)c1c(O)ccc2ccccc12` (stereo unspecified) it was -0.666; in that of `CS(=O)(=O)N(CC(=O)NC1CCCC1)Cc1ccc(Cl)cc1`, -0.11; in that of `CCn1c(CSc2nnc3ccccn23)nc2cc(C(=O)O)ccc21`, 1.35.
The compound `CC(C)=CCSc1nnc(CCNC(=O)OC(C)(C)C)o1` had a z-score of -0.41.
In the case of `O=C(O)Cn1nnnc1SCC(=O)Nc1ccc(OC(F)(F)F)cc1` it was -0.558.
The compound `O=C(C1CCCO1)N1CCN(C(=S)Nc2ccc(Cl)c(Cl)c2)CC1` (stereo unspecified) registered a z-score of -0.107.
In the case of `O=C(CN1CCSCC1)c1c[nH]c2ccccc12` it was 0.0543.
`Cc1ccccc1Nc1nc(N)nc(CSc2nnc3sc4ccccc4n23)n1` yielded a z-score of 0.0724.
On to `CC(C)C(c1nnnn1CCc1ccccc1)N1CCN(C(=O)c2ccco2)CC1` (stereo unspecified), for which the z-score came to 0.0864.
Next, `CCOC(=O)c1ccc(N/C(=N\S(=O)(=O)c2ccccc2C)c2ccccc2)cc1`: -0.519; `CCOC(=O)N1CCN(c2c(NCc3ccccn3)c(=O)c2=O)CC1`: -0.858; `Cc1ccc(/C=N/n2nnnc2N)o1`: -0.618.
In the case of `O=C(NCc1cccnc1)Nc1ccc(F)cc1F` it was 0.0768; in that of `CCOc1ccc(CC(=N)C2=C(O)CC(C)(C)CC2=O)cc1OCC`, 0.345.
In the case of `CCCCc1ccc(NC(=O)COCC)cc1`, the z-score was -0.102.
Next, `COc1cc(/C=C2/C(=O)N=C(N)N2C)cc(OC)c1OC`: active: -4.47; `COc1ccccc1OCCNc1cc(N2CCCCC2)ccc1[N+](=O)[O-]`: -0.113; `Cc1cc(C(=O)CN2CCCCC2)c(C)n1-c1ccc(F)cc1`: 0.569.
Next, `COc1ccc(/C=C/C(=O)NCc2cccnc2)cc1`: -0.233.
Next, `COc1cc(S(=O)(=O)Nc2cccc(C(=O)O)c2)c(OC)cc1Cl`: -0.00865; `Cc1cc(C)nc(Nc2ccc(N3CCCC3)cc2)n1`: 0.089.
`Cc1[nH]nc(-c2ccc(OCc3cnn(-c4ccccc4)c3)cc2O)c1Oc1ccccc1F` showed a z-score of -0.0892.
In the case of `O=C1c2ccccc2C(=O)N1CC(O)CN1CCOCC1` (stereo unspecified) it was 0.337; in that of `COc1ccc(-c2noc(CN(C(=O)c3cccs3)C(C)C)n2)cc1`, 0.0511; in that of `COc1ccc(NC(=O)CN(C)S(=O)(=O)c2cccs2)cc1`, 0.198.
In the case of `CCn1c(SCC(=O)N2CCCc3ccccc32)nnc1-c1ccoc1C` it was -0.224.
In turn, `Cc1cc(C)n(-c2cc(=O)n(C)c(=O)n2C)n1` showed a z-score of -0.17.
Next, `COc1cccc(-n2ccnc2SCC(=O)Nc2cc(OC)ccc2OC)c1`: -0.377; `CCCN1C2=NCCN2c2cc(C)c(C)cc21`: -0.319; `CCCc1cc(=O)[nH]c(SCC(=O)Nc2cc3c(cc2C(C)=O)OCO3)n1`: -0.969.
For the compound `CCOC(=O)C1CCCN(Cc2ccccc2OCC)C1` (stereo unspecified), the z-score was found to be 0.609.
In the case of `O=C(NCc1ccccc1)c1ccc(OC2CSC2)cc1` it was -0.0484.
In the case of `COc1ccc2[nH]c(C)c(C(=O)CN(C)C)c2c1` it was 0.739.
Next, `COc1cccc(-n2nnc3c(=O)n(CC(=O)OCc4ccccc4)cnc32)c1`: -0.0992; `COc1ccc(NC(=O)CN(C)S(=O)(=O)c2ccc(C)cc2)c([N+](=O)[O-])c1`: -0.104; `Cc1c(Br)c([N+](=O)[O-])nn1C(C)C(=O)Nc1ccc2c(c1)OCO2` (stereo unspecified): -0.225.
Consider `CCN(CC)C(=O)C1CCN(CC2CC=CCC2)CC1` (stereo unspecified), for which the z-score stood at 0.393.
In the case of `O=C(NCc1cccnc1)C1CC(=O)N(c2ccc(Cl)cc2)C1` (stereo unspecified) it was -0.393; in that of `O=C(Oc1cc(Cl)ccc1Cl)c1ccc(N2CCOCC2)c([N+](=O)[O-])c1`, -0.0444.
Next, `CCOC(=O)c1cc(NC(=O)C2CCCO2)cc(C(=O)OCC)c1` (stereo unspecified): -1.11; `Cn1c(Oc2ccc(Cl)c3cccnc23)nc2c1c(=O)n(Cc1ccccc1Cl)c(=O)n2C`: -0.261.
Next, `CCCn1c(=N)n(CC(O)COc2cccc(C)c2)c2ccccc21` (stereo unspecified): active: 3.74; `CCn1c(SCC(=O)c2ccc3c(c2)Cc2ccccc2-3)nnc1-c1ccc(N)cc1`: 0.446; `COc1ccc(-n2nnnc2-c2cccc(OC)c2)cc1`: -0.094.
On to `CCN(C(=O)CSc1ncn[nH]1)c1cccc2ccccc12`, for which the z-score is 0.189.
Compound `COc1ccccc1N(CC(=O)NC(C)(C)C)S(=O)(=O)c1cccs1` showed a z-score of 0.0455.
In the case of `CCOC(=O)CSc1nnc(CNC(=O)c2cccs2)n1-c1ccccc1` it was -0.777; in that of `Cc1cc2c(C)c(C)c(=O)[nH]c2cc1N`, 0.908; in that of `COc1ccc(CNC(=O)COC(=O)Cc2ccc(Cl)cc2Cl)cc1`, -0.0429.
Turning to `COC(=O)c1c(C(=O)OC)n(CCCN)c2ccc(C)cc12`, the z-score turned out to be 0.31.
Consider `Cc1ccc(CNn2cnnc2SCc2ccc(F)cc2)cc1`, for which the z-score is -0.0746.
Next, `O=C(Nc1ccc2nc(-c3cccs3)[nH]c2c1)c1ccco1`: -0.278.
Next, `O=C(CCSc1ccccc1)Nc1nnc(-c2ccccc2)o1`: 0.683.
Next, `O=C(Cc1cccs1)Nc1nc(-c2ccc(F)cc2F)cs1`: -0.0368; `CC1C(c2ccccc2)N(C)CCC12NC(=O)NC2=O` (stereo unspecified): -0.109; `Cc1nc(/C=C/c2ccccc2)cc(/C=C/c2ccccc2)n1`: -0.938.
For the compound `COc1ccc(S(=O)(=O)N(Cc2ccccc2)c2ccccc2C(=O)Nc2ccccc2C(=O)NCc2ccco2)cc1`, the z-score was determined as 0.274.
In turn, `O=C(COc1ccccc1Cl)NNC(=O)C1CCCO1` (stereo unspecified) showed a z-score of 0.173.
In the case of `N=c1sccn1CC(=O)Nc1cccc2ccccc12` it was -0.00239; in that of `Cc1ccc(-c2csc(N(CCc3ccccc3)C(=O)COc3ccccc3)n2)cc1`, -0.529; in that of `c1ccc(C2=Nc3ccccc3NC(c3ccccc3)C2)cc1` (stereo unspecified), -0.159.
Next, `Cn1c(=O)cc(OCCCC(=O)Nc2ccc3c(c2)OCCO3)c2ccccc21`: -0.101.
Next, `COCC(C)n1c(C)cc(C(=O)CSc2ccc(NC(C)=O)cc2)c1C` (stereo unspecified): 0.445.
`Cc1cc2cc(CNC(=O)CCC(=O)O)ccc2[nH]1` returned a z-score of -0.0115.
`CCc1ccccc1N1CCN(S(=O)(=O)c2ccc(F)c(C)c2)CC1` yielded a z-score of -0.506.
In the case of `N=C1C(c2nc3ccccc3c(=O)[nH]2)=C(O)CN1CCc1ccccc1` it was -0.107; in that of `CCOC(=O)C1CCCN(C(=O)Cn2nc(Cc3cccnc3)c3ccccc3c2=O)C1` (stereo unspecified), 0.256; in that of `CCOc1ccc2nc(NC(=O)CSc3nc4cccnc4n3C)sc2c1`, -0.276.
Next, `Cc1ccc(C)c(S(=O)(=O)Nc2ccc3scnc3c2)c1`: -0.501.

Source of the values: PubChem BioAssay AID488969 (Vanderbilt High Throughput Screening Facility, 2010).
